{
  "source": "the RNAGym collection of RNA variant scans (doi:10.1073/pnas.2313332121)",
  "parents": {"B1": {"name": "TPR 5TU (parent)", "chain": "GGAUCUUCUCGAUCUAACAAAAAAGACAAAUCUGCCACAAAGCUUGAGAGCAUCUUCGGAUGCAGAGGCGGCAGCCUUCGGUGGCGCGAUAGCGCCAACGUUCUCAACUAUGACACGCAAAACGCGUGCUCCGUUGAAUGGAGUUUAUCAUG"}},
  "note": "This sample is rich in variants without activity.",
  "data": [
    {"variants_of": "B1", "assay": "polymerase ribozyme fitness, log enrichment relative to wild type (log ratio); higher = more active; in vitro selection for triplet polymerase activity", "in_short": "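In triplicate, a single round of in vitro selection was run on each mutant library, PCR-built and transcribed, covering one subunit of a heterodimeric triplet polymerase ribozyme. Frozen incubation at −7 °C followed annealing with a biotinylated primer, partner subunit and triplets, and extended constructs were then gel-excised, streptavidin-captured and taken through RT-PCR. Fitness is the logarithm of genotype enrichment over wild-type enrichment, from inverse-variance-weighted replicate averages of Illumina-sequenced inputs and outputs. […] only genotypes with ≥10 input reads and ≥1 read per output were kept.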", "values": [
      {"variant": "GGAUCUUCUCGAUCUAACAAAAUAGACAAAUCUGCCACAAAGCUUGAGAGCAUCUUCGGAUGCCGAAGCGGCAGCCUUCGCUGGCGCGAUAGCGCCAACGUUCUCAACUAUGACACGCAAAACGCGUGCUCCGUUGAAUGGAGUUUAUCAUG", "note": "[A23U A64C G67A G81C]", "polymerase ribozyme fitness (log ratio)": "≤ -4.2"},
      {"variant": "GGAUCUUCUCGAUCUAACAAAAUAGACAAAUCUGCCACAAAGCUUGAGAGCAUCUUCGGAUGCAGCGGCGCCAGCCUUCGGUGUCGCGAUAGCGCCAACGUUCUCAACUAUGACACGCAAAACGCGUGCUCCGUUGAAUGGAGUUUAUCAUG", "note": "[A23U A66C G71C G84U]", "polymerase ribozyme fitness (log ratio)": "≤ -4.2"},
      {"variant": "GGAUCUUCUCGAUCUAACAAAAUAGAGAAAUCUGCCACAGAGCUUGUGAGCAUCUUCGGAUGCAGAAGCGGCAGCCUUCGGUUACGCGAUAGCGCCAACGUUCUCAACUAUGACACGCAAAACGCGUGCUCCGUUGAAUGGAGUUUAUCAUG", "note": "[A23U C27G A40G A47U G67A G83U G84A]", "polymerase ribozyme fitness (log ratio)": "≤ -4.2"},
      {"variant": "GGAUCUUCUCGAUCUAACAAAAUAGAUAAAUCUGCCAGAAAGCUUGAGAGCAUCUUCGGAUGCAGAGGCGGCAGCCUUCGGUGGCGCGAUAGUGCCAACGUUCUCAACUAUGACACGCAAAACGCGUGCUCCGAUGAAUGGAGUUUAUCAUG", "note": "[A23U C27U C38G C93U U134A]", "polymerase ribozyme fitness (log ratio)": "≤ -4.2"},
      {"variant": "GGAUCUUCUCGAUCUAACAAAAUAGACAAAUUUGCCACAAAGCUUGAGAGCAUCUUCGGAUGCAGAGGCGGCAGCCUUCGGUGGCGCGAUAGCGCCAACGUUCUCAACUAUGACGCGCAAAACCCGUGCUCCGUUGAAUGCAGUUUAUCAUG", "note": "[A23U C32U A115G G124C G141C]", "polymerase ribozyme fitness (log ratio)": "≤ -4.2"},
      {"variant": "GGAUCUUCUCGAUCUAACAAAAUAGACAAAUCUGACACAACGCUUGAGAGCAUCGUCGGAUGCAGAGGCGGCAGCCUUCGGUGGCCCGAUAGCGGCAACGUUCUAAACUAUGACACGCAAAACGCGUGCUCCGUUGAAUGGAGUUUAUCAUG", "note": "[A23U C35A A41C U55G G86C C95G C105A]", "polymerase ribozyme fitness (log ratio)": "≤ -4.2"},
      {"variant": "GGAUCUUCUCGAUCUAACAAAAUAGACAAAUCUGGCACAAAGCUUGAGAGCAUCUUCGGAUGCAGAGGCGGCUGCCUUCGAUGGCGCGAUAGCGCCAACGUUCUCAACGAUGACACGCAAAACGCGUGCUCCGUUGAAUGGAGUUUAUCAUG", "note": "[A23U C35G A73U G81A U109G]", "polymerase ribozyme fitness (log ratio)": "≤ -4.2"},
      {"variant": "GGAUCUUCUCGAUCUAACAAAAUAGACAAAUCUGUCCCAAAGCUUGAGAGCAUCGUCCGAUGAAGAGGCGGCAGCCUUCGGUGGCGCGAUAGCACCAACGUUCUCAACUAUGACACACAAAACGCGUACUCCGUUGAAUGGAGUUUUUCAUG", "note": "[A23U C35U A37C U55G G58C C63A G94A G117A G128A A147U]", "polymerase ribozyme fitness (log ratio)": "≤ -4.2"},
      {"variant": "GGAUCUUCUCGAUCUAACAAAAUAGACAAAUCUGCUACAAAGCUUGAGAGCAUCUUCGAAUGCAGAGGCGGCAGCCUUCGGUGGCGCGAUAGCGCCAACGUUCUCAACUAUGACACGCAAAACGCGUGCUCCGUUGAAUGGAGUUGAUCAUG", "note": "[A23U C36U G59A U146G]", "polymerase ribozyme fitness (log ratio)": "≤ -4.2"},
      {"variant": "GGAUCUUCUCGAUCUAACAAAAUAGACAAAUCUGCCAAAAAGCUGGAGACCAUCUACGGAUGCAGAGGCGGCAGCCUUCGGUGGCGCGAUAGGGCCAACGUUCUCAACUAUGACACACAAAACGCGUGCUCCGUUGAAUGGAGUUUAUCAUG", "note": "[A23U C38A U45G G50C U56A C93G G117A]", "polymerase ribozyme fitness (log ratio)": "≤ -4.2"},
      {"variant": "GGAUCUUCUCGAUCUAACAAAAUAGACAAAUCUGCCAUAAAGCUUGAGAGCAUCUUCGGAUGCAGAGGCGGCAGCCUUCGGUGGCGCGAUAGCGCCAACGUUCUCAACUAUGACACGCAAAACGCGUGCUCCGUUGAAUGGAGUUUAUCAUG", "note": "[A23U C38U]", "polymerase ribozyme fitness (log ratio)": -4.06},
      {"variant": "GGAUCUUCUCGAUCUAACAAAAUAGACAAAUCUGCCACAAAGGUUGAAAGCAUCUUCGGAUGCAGAGGCGGCAGCCUUCGGUGGCGCGAUAACGCCAGCGUUCUCAACUAUGACACGCAAAACGCGUGCUCCGUUGAAUGGAGUUUUUCAUC", "note": "[A23U C43G G48A G92A A98G A147U G152C]", "polymerase ribozyme fitness (log ratio)": -3.84},
      {"variant": "GGAUCUUCUCGAUCUAACAAAAUAGACAAAUCUGCCACAAAGCUUGAGAGGAUCUUCGGAUGCAGAGGCGGCAGCCUUAGGUGUCGCGAUAGCGCCAACGUUCUCAACUAUGACACGCAAAACGCGUGCUCCGUUGAAUAGAGUUUAUCAUG", "note": "[A23U C51G C79A G84U G140A]", "polymerase ribozyme fitness (log ratio)": "≤ -4.2"},
      {"variant": "GGAUCUUCUCGAUCUAACAAAAUAGACAAAUCUGCCACAAAGCUUGAGAGCAUGUCUGGAUGCAGAGGUGGCAGCCUUCGGUGGCGCGAUAGCACCAACGUUCUCAACUAUGACACGCAAAACGCGUGCCCCGUUGAAUGGAGUUUAUCAUG", "note": "[A23U C54G U56C C57U C69U G94A U130C]", "polymerase ribozyme fitness (log ratio)": "≤ -4.2"},
      {"variant": "GGAUCUUCUCGAUCUAACAAAAUAGACAAAUCUGCCACAAAGCUUGAGAGCAUCUUCGGAUGCAGAGGCGGGAGCCUUCGGUUGCGCGAUAGCGCCAACGUUCUCAACUAUGACACGCAAAACGCGUGCUCCGUUGAAUGGAGUUUAUCAUG", "note": "[A23U C72G G83U]", "polymerase ribozyme fitness (log ratio)": "≤ -4.2"},
      {"variant": "GGAUCUUCUCGAUCUAACAAAAUAGACAAAUCUGCCACAAAGCUUGAGAGCAUCUUCGGAUGCAGAGGCGGCAGGCUUCGGUGGCGCGAUAGUGCUAACGUUCUCAACUAUGACACGCAAAACGCGUGCUCCGUCGAAUGGAGUUUAUCAUG", "note": "[A23U C75G C93U C96U U135C]", "polymerase ribozyme fitness (log ratio)": "≤ -4.2"},
      {"variant": "GGAUCUUCUCGAUCUAACAAAAUAGACAAAUCUGCCACAAAGCUUGAGAGCAUCUUCGGAUGCAGAGGCGGCAGCGUUCGGUGGCGCGAUAGCGCCAACGUUCUCAACUAUGACACGCAAAACGCGUGCUCCGUUGAAUGGAGUUUAUCAUG", "note": "[A23U C76G]", "polymerase ribozyme fitness (log ratio)": "≤ -4.2"},
      {"variant": "GGAUCUUCUCGAUCUAACAAAAUAGACAAAUCUGCCACAAAGCUUGAGAGCAUCUUCGGAUGCAGAGGCGGCAGCCUUAGGUGGCGAGAUAGCGCCAAUGUUCUCAACUAUGACACGCAAAACGCGUGCUCCGUUGAAUGGAGUUUAUCAUG", "note": "[A23U C79A C87A C99U]", "polymerase ribozyme fitness (log ratio)": "≤ -4.2"},
      {"variant": "GGAUCUUCUCGAUCUAACAAAAUAGACAAAUCUGCCACAAAGCUUGAGAGCAUCUUCGGAUGCAGAGGCGGCAGCCUUCGGUGGUGCGAUAGCGCGAACGUUCUCAACUAUGACACGCAAAGCGCGUGCUCCGUUGAAUGGAGUUUAUCAUG", "note": "[A23U C85U C96G A122G]", "polymerase ribozyme fitness (log ratio)": "≤ -4.2"}
    ]}
  ]
}
